Measured values reported in the supplement of paper PMC4206461.
The other results are listed elsewhere or left out.

tested on: Pseudomonas aeruginosa PA14 dppA1-A5 penta deletion mutant; assay: respiration area under curve with compound as sole nitrogen source, 24 h (OmniLog AUC (arbitrary units)); higher = more respiration / better utilisation as nitrogen source, active = 2000 or more; extreme values may be limits of the assay; settings: plate: PM6
Protocol: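 Biolog Phenotype MicroArray plates PM6-PM8: each di/tripeptide is the sole nitrogen source. Tetrazolium reduction was read in the OmniLog for 24 h at 37°C and summarised as area under the respiration curve (arbitrary units). Values below 2000 count as no respiration.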

Row | SMILES | respiration area under curve
1 | CC(C)C[C@H](N)C(=O)N[C@@H](C)C(=O)O | active: 8940
2 | C[C@H](N)C(=O)N[C@@H](CC(N)=O)C(=O)O | active: 7210
3 | NC(=O)C[C@H](N)C(=O)N[C@@H](CCC(=O)O)C(=O)O | active: 2120
4 | CC(C)CC(N)C(=O)NC(CC(=O)O)C(=O)O (stereo unspecified) | active: 2380
5 | N[C@@H](CCC(=O)O)C(=O)N[C@@H](CC(=O)O)C(=O)O | inactive: 0
6 | C[C@H](N)C(=O)NCC(=O)O | active: 4200

same assay, conditions: plate: PM7

Row | SMILES | respiration area under curve
7 | CC(C)[C@H](N)C(=O)N[C@@H](CCCN=C(N)N)C(=O)O | active: 13200
8 | CC(C)[C@H](N)C(=O)N[C@@H](CC(N)=O)C(=O)O | active: 7070
9 | NC(=O)CC[C@H](NC(=O)[C@@H](N)Cc1ccc(O)cc1)C(=O)O | active: 11500
10 | C[C@@H](O)[C@H](N)C(=O)N1CCC[C@H]1C(=O)O | inactive: 0
11 | CSCC[C@H](N)C(=O)N[C@@H](CCC(N)=O)C(=O)O | active: 4530
12 | CC(C)[C@H](N)C(=O)N[C@H](C(=O)O)C(C)C | active: 3720
13 | CSCCC(N)C(=O)NC(CCCN=C(N)N)C(=O)O (stereo unspecified) | active: 13900
14 | C[C@H](NC(=O)[C@@H](N)CO)C(=O)O | active: 2830
15 | CC(C)[C@H](N)C(=O)N[C@@H](Cc1ccc(O)cc1)C(=O)O | active: 6310
16 | O=C(O)CNC(=O)[C@@H]1CCCN1 | inactive: 792
17 | CC(C)C[C@H](NC(=O)[C@@H](N)[C@@H](C)O)C(=O)O | active: 2320
18 | N[C@@H](CO)C(=O)N1CCC[C@H]1C(=O)O | inactive: 0

same assay, conditions: plate: PM8

Row | SMILES | respiration area under curve
19 | CC(C)C[C@@H](N)C(=O)N[C@@H](Cc1ccc(O)cc1)C(=O)O | inactive: 39
20 | C[C@H](NC(=O)[C@@H](N)CCC(=O)O)C(=O)O | inactive: 9.14
21 | NC(=O)C[C@H](NC(=O)[C@@H](N)CO)C(=O)O | active: 10500
22 | CSCCC(NC(=O)C(N)C(C)C)C(=O)O (stereo unspecified) | inactive: 871
23 | CCC(C)C(N)C(=O)NC(CC(N)=O)C(=O)O (stereo unspecified) | inactive: 809
24 | CC(C)C[C@@H](N)C(=O)N[C@H](CC(C)C)C(=O)O | inactive: 0
25 | C[C@@H](O)[C@H](N)C(=O)N[C@@H](CCC(N)=O)C(=O)O | inactive: 1050
26 | CC(C)C[C@H](N)C(=O)NCC(=O)NCC(=O)O | active: 6350
27 | CC[C@H](C)[C@H](NC(=O)[C@@H]1CCCN1)C(=O)O | inactive: 337
28 | CC(C)[C@H](N)C(=O)N[C@@H](Cc1ccccc1)C(=O)O | active: 4120
29 | CC(C)C[C@H](N)C(=O)N[C@@H](CC(N)=O)C(=O)O | active: 11000
30 | NCC(=O)NCC(=O)N[C@@H](Cc1ccccc1)C(=O)O | inactive: 1
31 | CC(C)[C@H](NC(=O)[C@H](C)N)C(=O)O | inactive: 1270
